Assay results reported in article PMC4336329 (PLoS ONE, 2015).
Screen size: about 310,000 compounds; about 2,200 (0.71%) showed an effect of 50% or more. The effect is printed as a negative number. Some of the results follow.

Molecular target: human ether-à-go-go-related gene (hERG) potassium channel (human, UniProt Q12809)
Assay: primary screen, population patch clamp on CHO cells stably expressing hERG

Chain of human ether-à-go-go-related gene (hERG) potassium channel (Q12809 whole entry, looked up): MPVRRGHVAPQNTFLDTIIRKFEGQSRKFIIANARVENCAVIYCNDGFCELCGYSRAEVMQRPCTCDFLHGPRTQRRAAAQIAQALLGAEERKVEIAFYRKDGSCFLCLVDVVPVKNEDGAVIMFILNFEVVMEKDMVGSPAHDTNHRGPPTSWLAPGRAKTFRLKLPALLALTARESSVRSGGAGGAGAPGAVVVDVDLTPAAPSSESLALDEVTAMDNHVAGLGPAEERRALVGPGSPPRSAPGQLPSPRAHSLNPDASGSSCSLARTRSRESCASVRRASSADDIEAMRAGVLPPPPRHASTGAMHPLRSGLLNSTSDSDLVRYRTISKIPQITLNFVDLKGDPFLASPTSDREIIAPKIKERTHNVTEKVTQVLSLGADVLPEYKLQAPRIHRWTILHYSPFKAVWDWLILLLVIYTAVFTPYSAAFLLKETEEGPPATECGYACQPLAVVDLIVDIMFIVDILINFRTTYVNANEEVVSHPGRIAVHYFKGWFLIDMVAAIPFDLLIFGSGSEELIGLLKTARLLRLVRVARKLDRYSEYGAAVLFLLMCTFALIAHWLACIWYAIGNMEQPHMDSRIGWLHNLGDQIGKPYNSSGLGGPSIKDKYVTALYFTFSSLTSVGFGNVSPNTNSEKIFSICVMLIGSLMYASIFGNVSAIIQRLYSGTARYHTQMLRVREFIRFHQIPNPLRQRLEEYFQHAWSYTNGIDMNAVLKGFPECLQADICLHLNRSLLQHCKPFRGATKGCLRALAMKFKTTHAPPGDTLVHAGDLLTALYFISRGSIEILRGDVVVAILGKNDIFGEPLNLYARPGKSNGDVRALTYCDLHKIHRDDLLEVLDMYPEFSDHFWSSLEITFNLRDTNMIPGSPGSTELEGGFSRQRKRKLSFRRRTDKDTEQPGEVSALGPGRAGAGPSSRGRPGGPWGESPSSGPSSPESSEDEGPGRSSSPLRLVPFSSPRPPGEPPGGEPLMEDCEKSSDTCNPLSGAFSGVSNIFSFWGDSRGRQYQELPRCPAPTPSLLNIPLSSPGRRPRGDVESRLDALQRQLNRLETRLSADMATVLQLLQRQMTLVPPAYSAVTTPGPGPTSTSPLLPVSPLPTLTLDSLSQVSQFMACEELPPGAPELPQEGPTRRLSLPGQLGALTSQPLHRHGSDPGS

Row | Structure (SMILES) | hERG current change (%, negative = inhibition) at 1uM [%]
1 | CNc1ccc(Br)cc(C(=O)/C=C/c2cccc(OC)c2)c1=O | 8.33
2 | O=C(c1ccc(-n2cccc2)cc1)N1CCN(Cc2ccccc2)CC1 | -59.9
3 | Cc1ccc(SCC(=O)OCC(=O)NCC2CCCCC2)cc1C | 13.1
4 | CCCCOC(=O)CSc1nc(N)c(C#N)c(-c2ccc(OC)cc2)c1C#N | 9.25
5 | COc1ccc2c(c1)CCCC21NC(=O)N(CC(N)=O)C1=O (centres unmarked) | -0.975
6 | CCCCN1CC(=O)N2[C@H]3c4ccccc4OC[C@@H]3[C@H](c3ccccc3)[C@]2(C)C1=O | 9.26
7 | Clc1ccc(CSc2nnc3c(n2)[nH]c2ccccc23)cc1 | -12.4
8 | O=C(O)c1ccc(Cn2nnc3sc4c(c3c2=O)CCCC4)cc1 | 18.1
9 | O=C(NC1=NCCCCC1)c1cccc2ccccc12 | 5.45
10 | CCCCN(C(=O)c1ccc([N+](=O)[O-])s1)c1c(N)n(CCCC)c(=O)[nH]c1=O | 11.3
11 | Cn1nnnc1SCC(=O)c1cccs1 | 9.41
12 | COc1ccc(CN2CCC(Cc3ccccc3)CC2)c(C)c1C | 9.37
13 | CCCc1c(C)nc(N2CCN(c3ccccc3F)CC2)[nH]c1=O | 12.3
14 | Cc1cccn2c(=O)c(C=O)c(Sc3ncccn3)nc12 | 15.9
15 | COc1ccccc1NC=C1C(=O)OC(C)(C)OC1=O | -19.6
16 | O=C1C2CCCN2C(=O)N1CCCCN1CCN(c2ccccc2)CC1 (centres unmarked) | 1.66
17 | Cc1ccc(S(=O)(=O)Nc2ccc3nc(-c4cccn4C)[nH]c3c2)cc1 | -3.65
18 | CCOC(=O)C1C(=O)OC(C)(C)C1C(C)C(=O)c1ccc(C)cc1C (centres unmarked) | -1.34
19 | COc1cc(C)c(S(=O)(=O)NCc2cccnc2)cc1C | 14
20 | CC(=O)c1cccc(NC(=O)COC(=O)c2n[nH]c3ccccc23)c1 | 5.33
21 | Nc1ccc(C(=O)OCCCc2nc3cc4ccccc4cc3[nH]2)cc1 | -4.16
22 | CCN(CC(=O)Nc1ccc(S(=O)(=O)N2CCCC2)cc1)CC(=O)Nc1cccc(OC)c1 | 28.2
23 | Cn1c(SCc2ccccc2Cl)nnc1-c1cnccn1 | 14.6

Row | Structure (SMILES) | hERG current change (%, negative = inhibition) at 1uM [%]
24 | COc1cccc(OC)c1C(=O)N1CCN(c2c(Cc3ccccc3)c(C)nc3ncnn23)CC1 | -1.17
25 | Cc1ccccc1CNC(=O)CCC(=O)N1CCOc2ccccc21 | 8.29
26 | CC1(NC(=O)CCc2nc3ccccc3c(=O)[nH]2)CCS(=O)(=O)C1 (centres unmarked) | 12.9
27 | COc1cc2cc(C#N)c(SCC(=O)Nc3cc(C)on3)nc2cc1OC | 8.57
28 | COc1ccc(S(=O)(=O)N2CCC3(CC2)OCCN3S(=O)(=O)c2cccs2)cc1 | -1.95
29 | O=C(c1cccc(-c2ccccc2F)c1)N1CC[C@@H](N2CCC(O)CC2)[C@H](O)C1 | -1.58
30 | Cc1cc(=O)[nH]c(NN=C2C3CC4CC(C3)CC2C4)n1 | 5.42
31 | CC(=O)c1cc(C#N)c(SCc2ccc(F)cc2)nc1C | 11.7
32 | Cc1ccc(C23CC4CC(CC(CC(=O)NC(C)(C)CO)(C4)C2)C3)cc1 | 9.65
33 | CC(C)CN1C(=O)C(=O)N(CC(=O)NCc2ccc3c(c2)OCO3)C1=O | 9.96
34 | Cc1sc2c(c1C)c(=O)n(-c1cccc(C(F)(F)F)c1)c(=O)n2CC(=O)NCc1ccco1 | 12.9
35 | CC1CCCCC1n1c(=S)[nH]c2ccccc2c1=O (centres unmarked) | 5.93
36 | CCN(CC)S(=O)(=O)c1cc(NS(=O)(=O)c2c(Cl)cccc2Cl)ccc1C | 2.37
37 | CCn1c(=O)cc(SCC(=O)NCCCN2CCN(c3ccccc3F)CC2)c2ccccc21 | -17.6
38 | Cc1cccc(OCC(O)CN2CCOCC2)c1.Cl (centres unmarked) | 11.1
39 | Cc1cccc(OCC(=O)Nc2ccc(C(=O)c3ccc(C(=O)O)cc3)cc2)c1 | 4.44
40 | CCOC(=O)c1c(C)nc2sc(C(N)=O)c(N)c2c1-c1ccc(OC)cc1 | 10.8
41 | O=C1O[C@@H](c2ccc(O)cc2)Cc2cccc(O)c21 | 13.7
42 | O=C(Nc1ccc(Cl)c(Cl)c1)Nc1ccccn1 | 11.4
43 | Cc1ccc(N(C(=O)CNC(=O)c2ccco2)C(C(=O)NC2CCCCC2)c2cccnc2)cc1 (centres unmarked) | 3.44
44 | COC(=O)C(Cc1cncn1COCc1ccccc1)NC(=O)OC(C)(C)C (centres unmarked) | 7.05
45 | Cc1nn(-c2ccccc2)c2c1C1(C(=O)N(C)c3ccccc31)C(C#N)=C(N)O2 (centres unmarked) | 7.49
46 | CCC(=O)N(c1nnc(SCC(=O)Nc2ccccc2Cl)s1)C1CC1 | 22.8

Row | Structure (SMILES) | hERG current change (%, negative = inhibition) at 1uM [%]
47 | C=CCC(C)(NCc1ccccc1)c1ccccc1.Cl (centres unmarked) | -0.731
48 | CCn1c(C)cc(/C=C2\NC(=O)N(CC(=O)Nc3ccc(F)cc3)C2=O)c1C | 9.23
49 | O=C1C=C(Nc2cccc(Cl)c2)CC(c2ccco2)C1 (centres unmarked) | 6.67
50 | CC(C)(C)c1ccc(NC(=O)C(=O)C2C(=O)Nc3ccccc32)cc1 (centres unmarked) | 1.65
51 | CCOC(=O)N1CCN(c2c(N3CCc4ccccc4C3)c(=O)c2=O)CC1 | 9.24
52 | CC(Sc1nc2c([nH]c3ccccc32)c(=O)n1C)c1ccccc1 (centres unmarked) | 12
53 | CCNC(=S)N/N=C/c1ccccc1[N+](=O)[O-] | 13.9
54 | CCCCC(=O)NNC(=S)NCc1ccccc1 | 10.3
55 | CCOC(=O)c1c(C)[nH]c(C)c1S(=O)(=O)NCc1ccccc1C | 17.7
56 | CCCCCCNC(=O)CSc1nccn1Cc1ccccc1 | -6.96
57 | O=C(C1CCN(S(=O)(=O)c2ccccc2)CC1)N1CCN(Cc2ccccc2)CC1 | 5.49
58 | COc1ccc(CCN(Cc2nc3ccccc3c(=O)[nH]2)C(=O)c2ccco2)cc1 | 2.74
59 | COc1ccc(C(=O)N2CCN(c3cccc(Cl)c3)CC2)cc1 | -2.41
60 | CN(C)C1=NCCN1CC1CCCCC1 | 10.9
61 | CCOC(=O)CSc1nnc(CSc2nc(N)c3c(C)c(C)sc3n2)n1-c1ccccc1 | 10.2
62 | CC(C(=O)Nc1ccccc1Oc1ccccc1)c1ccccc1 (centres unmarked) | 7.34
63 | CCN1C(=O)[C@H]2[C@@H](c3ccc(-c4ccccc4)cc3)N3CCC[C@@]3(C(=O)OC)[C@H]2C1=O.O=C(O)C(F)(F)F | 9.68
64 | O=C(CCCN1CCC(C(=O)c2ccc(F)cc2)CC1)c1ccc(F)cc1 | -86.2
65 | Cl.c1ccc(-c2nc(NCc3ccco3)c3oc4ccccc4c3n2)cc1 | 15.7
66 | Cc1cc(Cl)c(S(=O)(=O)N2CCCC2)cc1OCC(N)=O | 6.85
67 | CCCc1cc(N2CCCC(C(=O)NCc3ccc4c(c3)OCO4)C2)n2ncnc2n1 (centres unmarked) | -34.2
68 | O=C(COC(=O)C1CC1)Nc1ccc(Cl)cn1 | 9.88
69 | Cc1ccc(CNC(=O)CSc2nnc3n2CCCCC3)cc1 | 1.62

Row | Structure (SMILES) | hERG current change (%, negative = inhibition) at 1uM [%]
70 | O=C(NC1CCS(=O)(=O)C1)/C(=C\c1ccco1)NC(=O)c1ccccc1 (centres unmarked) | 1.49
71 | O=C(CN1C(=O)NC2(CCCCCCC2)C1=O)Nc1ccc(Br)cc1Br | 5.73
72 | c1ccc(Cn2nnc3c(NCc4ccc5c(c4)OCO5)nc(C4CC4)nc32)cc1 | 14
73 | COc1ccc(N2CCN(C(c3cccs3)C(C)NC(=O)c3ccco3)CC2)cc1 (centres unmarked) | 14.5
74 | O=C(COC(=O)Cc1ccc(S(=O)(=O)N2CCOCC2)s1)NCc1ccc(Cl)cc1 | 0.696
75 | CCc1ccc(C(=O)NC(CCSC)C(=O)O)cc1 (centres unmarked) | 16.4
76 | COc1ccc(NC(=S)N2CCN(Cc3ccccc3)CC2)c(OC)c1 | -13.6
77 | CC(Cl)(Cl)/C(=N/P(=S)(N1CCOCC1)N1CCOCC1)N1CCOCC1 | 14
78 | CCC1CN(C(=O)NCc2ccc(F)cc2)c2cc(Cl)ccc2O1 (centres unmarked) | 11.5
79 | COc1ccccc1OCC(=O)N1CCN(c2ccccc2OC)CC1 | 10.1
80 | COc1ccc2nc(C3CCCCC3)c3c(c2c1)CCC3 | 14.6
81 | c1ccc2c(c1)CCN(c1nc(CN3CCOCC3)nc3sc4c(c13)CCCC4)C2 | 14.5
82 | COc1cccc(C(=O)N2c3cc(C)ccc3OCC2C(C)(C)C)c1 (centres unmarked) | 8.29
83 | COc1ccc(C2NC(=S)NC(C)=C2C(=O)Nc2ccccn2)cc1 (centres unmarked) | 7.8
84 | N/C(=N\OC(=O)CCC1CCCC1)c1ccncc1 | 8.35
85 | COc1ccc(OC)c(C2C(C(C)=O)=C(C)Nc3ncnn32)c1 (centres unmarked) | 9.32
86 | CCCOc1ccc(CN(C)c2ncnc(N)n2)cc1 | 7.66
87 | CC(C)c1nc(N2CCN(C(=O)c3ccco3)CC2)c(C#N)c2c1COC(C)(C)C2 | -42
88 | CCC(=O)N1CCc2cc(S(=O)(=O)NCCC(=O)N3CCN(c4cccc(OC)c4)CC3)ccc21 | 13.1
89 | Cn1c(N)c(C(=O)COC(=O)CSc2cccc3cccc(Cl)c23)c(=O)n(C)c1=O | 1.89
